According to the supplement of paper PMC11417369:
This is one part of the list.

test system: PF3D7_0420300 AP2 domain 1 (GST-tagged); test: gcPBM binding intensity (ln(normalized median fluorescence intensity)); higher = stronger DNA binding
Method in brief: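 After 1 h on an Agilent 4 × 180k array of primer-extended double-stranded 36-bp intergenic genomic probes and negative controls, bound GST-tagged P. falciparum DNA-binding domains were detected with Alexa488 anti-GST antibody and scanned at 488 nm. The domains had been expressed in E. coli, and binding took place in 1× PBS with 1% milk, 0.2 mg/ml BSA, 0.5% salmon testes DNA and 0.03% Triton X-100. Binding intensity is the highest Masliner-normalised natural-log median intensity across replicate spots of either probe orientation.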

Compared with “AAAACATACCTATATACACACATATAAATATAAATA [CACACA_site6956]”, “TTTGATATAGAAAGAGCATGCAAGTTAGATAAAATA [TGCATGCA_site470]” is lower in “gcPBM binding intensity (ln)” value: 9.71 for the first, 9.25 for the second.

Going from “TATATATTAATATACACACACACATATATATATATA [CACACA_site1608]” to “AATAAATTATTATGTACACACATAATAGTATATATA [CACACA_site1820]”, the “gcPBM binding intensity (ln)” value falls from 9.81 to 9.41.

Compared with “CAGTTAATGTTGGTACTTTATATAAAAATGATATGA [CACACA_negctrl_site1600]”, “ATAACAACATTTGATAAACACACAGAAGTATAAATA [CACACA_site8739]” is higher in “gcPBM binding intensity (ln)” value: 9.08 for the first, 9.64 for the second.

Compared with “TCTTTCTCTCTTCAAAGTACATATAATATATACTTC [XGTACX_site7982]”, “TTATTAATATTGCATGCACACTATATAATAATTGAA [CACACA_site8258]” is lower in “gcPBM binding intensity (ln)” value: 9.17 for the first, 9.14 for the second.

First: AAAATATAGTTATCAATATATAATATTTTTTTTTTA [CACACA_negctrl_site459]
Second: TATAAATAGGCATATACACACTTTTAATATTCATAA [CACACA_site6123]
The “gcPBM binding intensity (ln)” value of the first is lower: 8.91 for the first, 9.3 for the second.

First: GTATTTTTAAATGACACACACATATATATATATATA [CACACA_site1662]
Second: TTTGAACGAAAATACTCACACATATTTATAAACATT [CACACA_site5182]
The “gcPBM binding intensity (ln)” value of the first is higher: 9.56 for the first, 9.22 for the second.

Compared with “ATTTTTCATATATATATATTAATATATATATATTAA [CACACA_negctrl_site1681]”, “AAAAATATATTATATGTACACACAAAATTAAGGGAT [CACACA_site8384]” is higher in “gcPBM binding intensity (ln)” value: 9.05 for the first, 9.84 for the second.

First: TGAATATTTATACATGCACACTAAAATAAAGAATCT [CACACA_site5351]
Second: AAAATTTCTTTTTTTTGTACATATATAATAATATAT [XGTACX_site7107]
The “gcPBM binding intensity (ln)” value of the first is higher: 9.44 for the first, 8.92 for the second.

First: ATTATATATACATAATGTACATATATATATTACCTT [XGTACX_site7624]
Second: TATAAAATGACTATATATAATATTAAAAAAAAAAAA [TGCATGCA_negctrl_site387]
The “gcPBM binding intensity (ln)” value of the first is higher: 9.34 for the first, 9.11 for the second.

Going from “AAAAAAAAAAAAAATTCACACACATATAAAAAATTA [CACACA_site8140]” to “TAAATTAAGAATTTTACACACATTAAATAAAAAAAA [CACACA_site3638]”, the “gcPBM binding intensity (ln)” value falls from 9.64 to 9.39.

Going from “TTTTTTTATTTTTTTATAAATGTATTTCTATTATTT [CACACA_negctrl_site1562]” to “AAATTAGGAAATTGCACACAAAAAAAAACATATTAT [CACACA_site4074]”, the “gcPBM binding intensity (ln)” value rises from 9.3 to 9.62.

Compared with “CAAACACCCAAACACACACACACATACATACATACA [CACACA_site8044]”, “TTTTTTTTTTTTTGTGTGCACCTTATTTTTTTGTAT [GTGCAC_site9617]” is lower in “gcPBM binding intensity (ln)” value: 10.2 for the first, 9.62 for the second.

Going from “ATAGTAATGCATAAATATATATTATATATATATATA [XGTACX_negctrl_site576]” to “CTATTGTTAAATATAATACACACGTTTTTAAAAATA [CACACA_site2183]”, the “gcPBM binding intensity (ln)” value falls from 9.27 to 9.22.

Going from “GTATATATTTTGTATTCATTTGTCACATATAATAGA [CACACA_negctrl_site506]” to “TATATTATTTATATTTGTACACAGCGATATGAAATA [XGTACX_site987]”, the “gcPBM binding intensity (ln)” value falls from 9.43 to 9.21.

Compared with “ATATTATTATAAACTTCACACATTTTATGGGTTTTT [CACACA_site4631]”, “CGCATATTTTATGTTTGTACTCATATGAATATCATA [XGTACX_site4717]” is lower in “gcPBM binding intensity (ln)” value: 9.29 for the first, 9.21 for the second.

First: CATAAGCACAAGCACAAGCACACATTTATATATATA [CACACA_site882]
Second: TTGTATATATTAAATTGTACTTATTTTTTGTATATA [XGTACX_site3251]
The “gcPBM binding intensity (ln)” value of the first is higher: 9.4 for the first, 9.21 for the second.

First: TATAAACATATAAAAAGTACATACCAATTAATATTA [XGTACX_site967]
Second: GGATAAAATGCTACGAGTACATAAGCATTTTTCCCT [XGTACX_site7796]
The “gcPBM binding intensity (ln)” value of the first is higher: 9.31 for the first, 9.18 for the second.

Compared with “TCTTTTAAAAATATAAAAAGGAATATATAAAAATGT [CACACA_negctrl_site332]”, “TATTCTGTGTATAAAAGTACAAATATTTAAATGTAT [XGTACX_site8234]” is lower in “gcPBM binding intensity (ln)” value: 9.12 for the first, 9.11 for the second.

Going from “AATATATTCATCATATCAATATTGTCAAGCAAACGA [TGCATGCA_negctrl_site37]” to “GAATTTATTTTATTTTCACACACAAAAATAAATATC [CACACA_site8762]”, the “gcPBM binding intensity (ln)” value rises from 9.2 to 9.48.

Compared with “TTCTTTAATAAAATAATCTCAAAGAAAATTTTTTCT [GTGCAC_negctrl_site589]”, “AATAAATAGATATATACACACATATATGTGTACATA [CACACA_site7476]” is higher in “gcPBM binding intensity (ln)” value: 8.56 for the first, 9.78 for the second.

Compared with “TTATCCATTTTAATCACACATACTTTACTTTGGAAC [CACACA_site5584]”, “TGGAAAAATAGGCACACACACATATATACCTATATA [CACACA_site4843]” is higher in “gcPBM binding intensity (ln)” value: 9.23 for the first, 9.91 for the second.

Compared with “TTTTTTTTTTTTGAGTGTACTAAAATATTACCTTTT [XGTACX_site646]”, “TGAATATTTACTTTAGCACACAATTTGTATTTGATT [CACACA_site960]” is higher in “gcPBM binding intensity (ln)” value: 8.97 for the first, 9.44 for the second.

First: AATATTATAAATGATACACACTTAAAATACACCCAC [CACACA_site5498]
Second: AATATATTTTAATACACACACACATATATATATATA [CACACA_site5969]
The “gcPBM binding intensity (ln)” value of the first is lower: 9.83 for the first, 9.9 for the second.

Compared with “TTTTTTTTAAATATCACACACATATAACATATTCTA [CACACA_site7687]”, “ATATGTATATAAATGTGTACTTATAAATATATATAT [XGTACX_site3250]” is higher in “gcPBM binding intensity (ln)” value: 9.37 for the first, 9.41 for the second.

First: GAAATAGAGAAACACACACACATATATTTATGTATT [CACACA_site3967]
Second: ATAAAAATAAAAAGATGTACGTATTTTTTTTTTTTT [XGTACX_site5329]
The “gcPBM binding intensity (ln)” value of the first is higher: 9.99 for the first, 9.23 for the second.

Compared with “TATAAATAAATGCGTACACACTAATAAAAAAAAAAA [CACACA_site4630]”, “CATTATTATGATAGTTGTACAATTTTTATAAAAAAT [XGTACX_site4411]” is lower in “gcPBM binding intensity (ln)” value: 9.43 for the first, 9.17 for the second.

Compared with “CTTCCTTAGGAATGTACACACATATATAATATGTTG [CACACA_site461]”, “TACAGACAGAAATGCACACACATATTTATATTTATA [CACACA_site7139]” is higher in “gcPBM binding intensity (ln)” value: 9.41 for the first, 9.75 for the second.

Going from “TAATATTAATCCTAGTGTACATTAATTTATATGTAT [XGTACX_site3583]” to “ATTATATATATATAAACACACAAATATTTTTATATA [CACACA_site5005]”, the “gcPBM binding intensity (ln)” value rises from 9.22 to 9.42.

First: ACCTATATAAGTTATACACACAAATATAGATATATA [CACACA_site7356]
Second: ATTTAAGATTTAATCACACACATATAGATTATAGAC [CACACA_site7383]
The “gcPBM binding intensity (ln)” value of the first is lower: 9.56 for the first, 9.77 for the second.

Going from “ATGAAGAAGTGTAAATGTACATTTTATGTAGAACAA [XGTACX_site6925]” to “TTTACAGAAAGTTACATACACACTAATATTTACACC [CACACA_site1009]”, the “gcPBM binding intensity (ln)” value rises from 9.23 to 9.57.

Compared with “TATAAGAGGATATATACACACAAAAATATGTACAGT [CACACA_site6885]”, “TTTATATGTATTAAGTGTACACATATAATGTGTTTG [XGTACX_site6629]” is lower in “gcPBM binding intensity (ln)” value: 9.91 for the first, 9.29 for the second.

First: TTATTTTTTTTTTATTGTACTAGGAAAATTTCGATA [XGTACX_site702]
Second: TTTGACAAATTATTGTGTACACAATATTATTATATA [XGTACX_site8320]
The “gcPBM binding intensity (ln)” value of the first is lower: 8.88 for the first, 9.09 for the second.

Going from “ACAAAATGTAGATATTGTACATATTGTAGATATTGT [XGTACX_site7619]” to “AATAAAAAAGAATATACACACATAAATATAAAATAT [CACACA_site683]”, the “gcPBM binding intensity (ln)” value rises from 9.32 to 9.9.

Compared with “AATTAAAAAGAAAAAAGTACATATTTTTTTAAAAAA [XGTACX_site7384]”, “ATATATATATATATGTGTACTAATAAGGTTAAATAA [XGTACX_site1535]” is higher in “gcPBM binding intensity (ln)” value: 9.08 for the first, 9.3 for the second.

First: AAATATATATTTCTTAGTACATATGTATTTTTTTTT [XGTACX_site938]
Second: TGTATGTATAATTGAGTGCACAGAAAAAAAAAAGAA
The “gcPBM binding intensity (ln)” value of the first is lower: 9.26 for the first, 9.51 for the second.

Compared with “AGAAAAAAAAAAAAAAAACACACGGTACATTCAAAG [CACACA_site2]”, “TAATTTTCATATTTCTGTACATATATTATAAATATA [XGTACX_site3480]” is lower in “gcPBM binding intensity (ln)” value: 9.64 for the first, 9.19 for the second.

First: TAATATATATATATTACACACACGTATTATTAAATA [CACACA_site432]
Second: ATTTACATTATATTGAATATGCCATATTATATTATT [CACACA_negctrl_site811]
The “gcPBM binding intensity (ln)” value of the first is higher: 9.59 for the first, 9.39 for the second.

First: TCTAACATATTTTTAATACACACTTAAAAAAGTACT [CACACA_site1366]
Second: AATGCTTTTCATCAAGTGCAATATGTTAATACAAAC [GTGCAC_site9619]
The “gcPBM binding intensity (ln)” value of the first is higher: 9.14 for the first, 9.08 for the second.

Compared with “TCTATATCAACCAGTTGTACTGAATTTACTATATTT [XGTACX_site4205]”, “TATAAAAGTAGACACACACACATATAAATATAAATA [CACACA_site6567]” is higher in “gcPBM binding intensity (ln)” value: 9.31 for the first, 10.1 for the second.

Going from “GTAGACTGAAACCACACACACATATATAAATATATT [CACACA_site6433]” to “AAAAAAAAAAATGGTTGTACTTTTTTTATTTGGTGC [XGTACX_site4498]”, the “gcPBM binding intensity (ln)” value falls from 9.92 to 8.98.

Going from “ATATTATATTGGATGTTGCACTTAACAAAAGGATAT [GTGCAC_site9478]” to “ATAGACTTTTGTTTTGTTTTATTTTATTGTATTGTA [CACACA_negctrl_site618]”, the “gcPBM binding intensity (ln)” value rises from 9.23 to 9.52.

First: ACCATACAGAATAATGCATGTTCCTTTTTATGAATA [TGCATGCA_site995]
Second: AAAAAAATAAAGGATATACACACTAATTATATATAT [CACACA_site2812]
The “gcPBM binding intensity (ln)” value of the first is lower: 9.17 for the first, 9.64 for the second.

Compared with “TATACTTGTAAATGCACACATAAGATGCGACTAATG [CACACA_site2118]”, “AGATTATAAAATTCTACACACATATATACCTATATA [CACACA_site5848]” is higher in “gcPBM binding intensity (ln)” value: 9.25 for the first, 9.54 for the second.

Compared with “AAAATAATTGTTTACACACCCATTTGTAATTTTACC [CACACA_site3614]”, “CTGTGTTTTGGTTGTACACACGCTACATTCTATATT [CACACA_site2698]” is higher in “gcPBM binding intensity (ln)” value: 9.57 for the first, 9.69 for the second.
